Data as given in US6706740B2, “Fungicidal heterocyclic aromatic amides and their compositions, methods of use and preparation” (Dow AgroSciences LLC, priority 1999, dated 2004).

System: Plasmopara viticola—PLASVI
Assay: whole plant or invertebrate
Format: in vivo
Details: Plasmopara, 24 h, read-out: PLASVI in vivo 1 Day Protectant, 100 ppm, 24 hour protectant, grape; control of fungal infection vs untreated plants

| Structure (SMILES) | pest or weed control at 100 ppm [%] |
| --- | --- |
| COc1ccnc(C(=O)NC2C3CC4C(C3Cl)C42)c1O (centres unmarked) [Compound 304] | 25 to 74 |
| COc1ccnc(C(=O)NCC2C(C=C(C)C)C2(C)C)c1O (centres unmarked) [Compound 241] | 25 to 74 |
| COc1ccnc(C(=O)NC2CC(C)(C)CC(C)(C(=O)OCCC(C)(C)C)C2)c1O (centres unmarked) [Compound 261] | 25 to 74 |
| COc1ccnc(C(=O)NC2CC3OC2C(C)C(OC(=O)C(C)C)C3C)c1O (centres unmarked) [Compound 320] | < 25 |
| CC1(C)CC(NC(=O)c2ncccc2O)CC(C)(C)C1=O [Compound 205] | 25 to 74 |
| COc1ccnc(C(=O)NC2CCC(Sc3ccccc3)CC2)c1O (centres unmarked) [Compound 275] | < 25 |
| COc1ccnc(C(=O)NC2CCN(Cc3ccc(C)cc3)CC2)c1O [Compound 306] | 25 to 74 |
| COc1cccc(CNC(=O)c2ncccc2O)c1OC [Compound 227] | < 25 |
| O=C(NCCc1ccc(Cl)cc1)c1ncccc1O [Compound 233, N-(2-(4-CHLOROPHENYL)ETHYL)-3-HYDROXYPYRIDINE-2-CARBOXAMIDE] | 25 to 74 |
| COc1ccnc(C(=O)NC2CC(C)(C)CCCC2C)c1O (centres unmarked) [Compound 277] | < 25 |
| COc1ccnc(C(=O)NC2CCCC2=O)c1O (centres unmarked) [Compound 249] | < 25 |
| CCC1(C)OCC(NC(=O)c2nccc(OC)c2O)CO1 (centres unmarked) [Compound 314] | 25 to 74 |
| COc1ccnc(C(=O)NC2COC3(CC(C)(C)CC(C)(C)C3)OC2)c1O [Compound 315] | < 25 |
| COc1ccnc(C(=O)NC2c3ccccc3CC2(C)C)c1O (centres unmarked) [Compound 284] | < 25 |
| COc1ccnc(C(=O)NC2CCN(Cc3ccccc3)CC2)c1O [Compound 305] | < 25 |
| CC(NC(=O)c1ncccc1O)c1ccccc1 (centres unmarked) [Compound 229] | < 25 |
| COc1ccnc(C(=O)N[C@H]2CC[C@@H](Oc3ccc(C(F)(F)F)cc3)CC2)c1O [Compound 271] | 25 to 74 |
| COc1ccnc(C(=O)NC2C[C@H](C)C[C@H](c3ccccn3)C2)c1O (some centres unmarked) [Compound 259] | 25 to 74 |
| CC1(C)CC(NC(=O)c2ncccc2O)CC(C)(C2CC2)C1 (centres unmarked) [Compound 204] | < 25 |

Same assay, conditions: Plasmopara, 24 h, read-out: PLASVI in vivo 1 Day Protectant, 100 ppm, grape, 24 hour protectant, % control of fungal infection vs untreated plants

| Structure (SMILES) | pest or weed control at 100 ppm [%] |
| --- | --- |
| COc1ccnc(C(=O)Nc2ccc(C(=O)Oc3ccc(C(F)(F)F)cc3)cc2)c1OC(C)=O [Compound 717] | < 25 |
| COc1ccnc(C(=O)Nc2ccc(Oc3ccc(C(F)(F)F)cc3)cc2)c1OC(C)=O [Compound 709] | < 25 |
| COc1ccnc(C(=O)Nc2ccc(Sc3cccc(C(F)(F)F)c3)cc2)c1OC(C)=O [Compound 711] | < 25 |
| COCC(=O)Oc1c(OC)ccnc1C(=O)N[C@H]1COC(=O)[C@H](Cc2ccccc2)[C@@H](OC(=O)C(C)C)[C@H](C)OC1=O [Compound 653] | < 25 |
| COc1ccnc(C(=O)N[C@H]2COC(=O)[C@H](Cc3ccccc3)[C@@H](OC(=O)C(C)C)[C@H](C)OC2=O)c1OC(=O)OCCBr [Compound 692] | < 25 |
| COc1ccnc(C(=O)N[C@H]2COC(=O)[C@H](Cc3ccccc3)[C@@H](OC(=O)C(C)C)[C@H](C)OC2=O)c1OC(=O)CC(C)(C)C [Compound 610] | < 25 |

Same assay, conditions: Plasmopara, 24 h, read-out: PLASVI in vivo 1 Day Protectant, 100 ppm, grape, 24 hour protectant; control of fungal infection vs untreated plants

| Structure (SMILES) | pest or weed control at 100 ppm [%] |
| --- | --- |
| COc1ccnc(C(=O)N[C@H]2O[C@@H](C)[C@@H](OC(C)=O)[C@@H](OC(C)=O)[C@@H]2OC(C)=O)c1O [Compound 333] | < 25 |
| COc1ccnc(C(=O)Nc2ccc(Oc3ccc(C(F)(F)F)cc3)cc2)c1O [Compound 425, 3-HYDROXY-4-METHOXY-N-(4-(4-TRIFLUOROMETHYLPHENOXY)PHENYL)-PYRIDINE-2-CARBOXAMIDE] | < 25 |
| COc1ccnc(C(=O)Nc2ccc(C(=O)c3ccc(C(F)(F)F)cc3)cc2)c1O [Compound 406] | < 25 |
| COc1ccnc(C(=O)N[C@H]2COC(=O)[C@H](Cc3ccccc3)[C@@H](OC(=O)C3CCCCC3)[C@H](C)OC2=O)c1O [Compound 392] | < 25 |
| COc1ccnc(C(=O)Nc2ccccc2Oc2ccc(Cl)cc2)c1O [Compound 438] | < 25 |
| COc1ccnc(C(=O)Nc2ccc(OC3CC(C)(C)OC(C)(C)C3)cc2)c1O [Compound 459] | < 25 |
| COc1ccnc(C(=O)NC(COC(=O)C(Cc2ccccc2)C(C)OC(=O)C(C)C)C(=O)OC(C)C)c1O (centres unmarked) [Compound 355] | 25 to 74 |
| CCCCCCCCCCCCC(=O)O[C@H]1[C@H](C)OC(=O)[C@@H](NC(=O)c2nccc(OC)c2O)COC(=O)[C@@H]1Cc1ccccc1 [Compound 397] | < 25 |
| COC(=O)C(COC(=O)CC(C)OC(=O)C(C)C)NC(=O)c1nccc(OC)c1O (centres unmarked) [Compound 347] | < 25 |
| COc1ccnc(C(=O)NC(COC(=O)CC(C)OC(=O)CCc2ccccc2)C(=O)OC(C)C)c1O (centres unmarked) [Compound 353] | 25 to 74 |
| COc1ccnc(C(=O)Nc2ccc(C(=O)Nc3cccc(C(F)(F)F)c3)cc2)c1O [Compound 449] | < 25 |
| COC(=O)C(Cc1ccc(OCc2ccccc2)cc1)NC(=O)c1nccc(OC)c1O (single isomer, unassigned) [Compound 338] | < 25 |
| CCOC(=O)c1cc(Oc2ccc(C(F)(F)F)cc2)ccc1NC(=O)c1nccc(OC)c1O [Compound 427] | 25 to 74 |
| COc1ccnc(C(=O)Nc2ccc(Oc3ccc(OC(=O)C(C)C)cc3)cc2)c1O [Compound 436] | < 25 |
| COc1ccnc(C(=O)N[C@H]2COC(=O)[C@H](Cc3ccccc3)[C@@H](OC(=O)C3CC3)[C@H](C)OC2=O)c1O [Compound 387] | < 25 |
| COc1ccnc(C(=O)Nc2ccc(Cc3cccc(C(F)(F)F)c3)cc2)c1O [Compound 404] | 25 to 74 |
| COc1ccnc(C(=O)Nc2ccc(OCc3ccc(C(F)(F)F)cc3)cc2)c1O [Compound 448] | < 25 |
| COc1ccnc(C(=O)NC2COC(=O)CC(c3ccccc3)C(=O)OC2)c1O (centres unmarked) [Compound 375] | 25 to 74 |
| COc1ccnc(C(=O)Nc2cc(C)c(OC(=O)c3ccc(C(F)(F)F)cc3)c(C)c2)c1O [Compound 457] | < 25 |
| COc1ccnc(C(=O)NC(COC(=O)CCc2ccccc2)C(=O)OC(C)COC(=O)C(C)C)c1O (centres unmarked) [Compound 358] | < 25 |
| COC(=O)C(COC(=O)C(COC(=O)C(C)C)Cc1ccccc1)NC(=O)c1nccc(OC)c1O (centres unmarked) [Compound 349] | 25 to 74 |

Same assay, conditions: Plasmopara, 24 h, read-out: PLASVI in vivo 1 Day Protectant, grape plants, 100 ppm, 24 hour protectant; control of fungal infection vs untreated plants

| Structure (SMILES) | pest or weed control at 100 ppm [%] |
| --- | --- |
| Cc1cc(C)c(C(=O)NC2CC(C)(C)CC(C)(C)C2)c(O)n1 [Compound 528] | < 25 |
| CC1(C)CC(NC(=O)c2nccc(Cl)c2O)CC(C)(C)C1 [Compound 480] | < 25 |
| O=C(Nc1ccccc1Oc1ccc(C(F)(F)F)cc1)c1nc(Br)ccc1O [Compound 493] | < 25 |
| COC(=O)C(COC(=O)C(C)c1ccccc1)NC(=O)c1nccc(OC)c1OC(C)=O (centres unmarked) [Compound 581] | 25 to 74 |
| CC(=O)Oc1cccnc1C(=O)Nc1ccc(Oc2cccc(C(F)(F)F)c2)cc1 [Compound 570] | < 25 |
| CC(=O)Oc1cccnc1C(=O)NC1CCC(OC(C)=O)CC1 (centres unmarked) [Compound 564] | < 25 |
| O=C(Nc1ccc(Oc2cccc(C(F)(F)F)c2)cc1)c1cscc1O [Compound 555] | < 25 |
| O=C(Nc1ccc(Oc2cccc(C(F)(F)F)c2)cc1)c1nccnc1O [Compound 535] | 25 to 74 |
| CCCCCc1ccc(C(C)NC(=O)c2nc(Br)ccc2O)cc1 (centres unmarked) [Compound 489] | < 25 |
| COc1cccc(CNC(=O)c2cccnc2O)c1OC [Compound 516] | 25 to 74 |
| O=C(Nc1ccc(Oc2ccccc2)cc1)c1cccnc1O [Compound 522] | < 25 |
| O=C(Nc1ccc(Oc2cccc(C(F)(F)F)c2)cc1)c1nscc1O [Compound 551] | < 25 |
| COc1ccnc(C(=O)N[C@@H]2OC[C@@H](OCc3ccccc3)[C@H](OCc3ccccc3)[C@H]2OCc2ccccc2)c1OC(C)=O [Compound 592] | < 25 |
| Cc1ccc(C(=O)NC2CC(C)(C)CC(C)(C)C2)c(O)n1 [Compound 524] | < 25 |
| O=C(Oc1cccnc1C(=O)NC1CCC(OC(=O)c2ccccc2)CC1)c1ccccc1 (centres unmarked) [Compound 567] | < 25 |
| CC(C)C(=O)O[C@H]1[C@H](C)OC(=O)[C@@H](NC(=O)c2cnn(C)c2O)COC(=O)[C@@H]1Cc1ccccc1 [Compound 556] | < 25 |
| COC(=O)C(COC(=O)CC(C)OC(=O)C(C)C)NC(=O)c1nccc(OC)c1OC(C)=O (centres unmarked) [Compound 586] | < 25 |
| COc1ccnc(C(=O)Nc2ccc(Oc3cc(C(F)(F)F)cc(C(F)(F)F)n3)cc2)c1O [Compound 464] | < 25 |
| COc1ccnc(C(=O)Nc2ccc(Oc3cc(Cl)nc(C(F)(F)F)c3)cc2)c1O [Compound 467] | < 25 |
| Cc1nc(O)c(C(=O)NC2CC(C)(C)CC(C)(C)C2)cc1Cl [Compound 530] | < 25 |
| COc1ccnc(C(=O)Nc2ccc(Oc3ccnc(C(F)(F)F)c3)cc2)c1O [Compound 465] | < 25 |
| CC(C)C(=O)O[C@H]1[C@H](C)OC(=O)[C@@H](NC(=O)c2nnccc2O)COC(=O)[C@@H]1Cc1ccccc1 [Compound 532] | 25 to 74 |
| CC1(C)CC(NC(=O)c2cnccc2O)CC(C)(C)C1 [Compound 502] | 25 to 74 |
| CC(NC(=O)c1nc(Br)ccc1O)c1ccc(Oc2ccccc2)cc1 (centres unmarked) [Compound 490] | 25 to 74 |
| COc1ccnc(C(=O)NC2CC(C)(C)CC(C)(C3CC3)C2)c1OC(C)=O (centres unmarked) [Compound 573] | < 25 |
